Reference: the supplement of paper PMC5499739
In all, about 16,000 sequences were measured (“Z-score”: median about -0.37, highest 2% from about 3.2 on). The list shows a part of the results.

tested on: RBM10 RRM1-ZnF (GST-tagged construct); test: RNAcompete 7-mer binding Z-score; higher = stronger binding preference
In short: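 Each heptamer motif was given a one-sided Z-score for enrichment across the probes that contained it. GST-tagged RBM10 constructs (20 pmol) were combined with 1.5 nmol of a designed pool of 241 399 RNAs of up to 41 nt, transcribed from microarray-derived DNA templates. Binding took place in 1 ml Hepes pH 7.8 buffer containing KCl, NaCl, glycerol, DTT, BSA and glutathione Sepharose beads for 30 min at 4°C. After four 2-min washes at 4°C, bound RNA was identified by microarray hybridisation.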

Sequence	RNAcompete 7-mer binding Z-score
CGCGUCU	-0.688
AAAGUGG	2.15
CUAGCCC	-0.61
UCUUCGC	-0.899
GUUACGG	0.859
CCUUAUA	-0.87
CAUGAUU	-0.73
GGGAGAC	2.2
AGAGCGC	-0.568
CUUUCCA	-0.889
AAGAGAU	0.293
CACCAAG	-0.461
AAAUAUA	-0.145
GAAUGAC	0.16
GCCCCAU	-0.707
CUGGUUC	-0.519
ACAAAUA	-0.376
GCGUUGA	-0.0999
UUGGAUC	-0.119
UGCGGAG	1.57
UACCCAA	-0.724
GAUCGGA	0.621
UCAUACG	-0.49

Sequence	RNAcompete 7-mer binding Z-score
CUAACGC	-0.766
UGUCCAG	-0.646
CGUCACU	-0.522
AGACCAG	-0.513
AAGCACG	-0.0772
GCAGCCA	-0.438
AACUUGC	-0.802
UGACGCA	-0.113
CCGCGGA	0.306
UUGUAAU	-0.383
CCGAGAC	-0.756
GGCAUGU	0.719
GUGCAUA	0.196
GUGAUGU	0.433
GUGCGGA	2.13
AAGCUGU	-0.655
GUGAGUA	1.02
UACGCGU	-0.318
UGUUACA	-0.405
UCGCACG	-0.149
AACGGUA	1.12
GGGUGUU	3.01
UUAAGAG	0.306

Sequence	RNAcompete 7-mer binding Z-score
GAACACA	-0.266
UAGCACG	-0.168
UAUGAGU	0.202
AUAGUGC	0.173
CAAUGAG	0.183
UGCCCAA	-0.542
CGGUUAC	0.319
UUGCUUC	-0.802
CUCUCAC	-0.688
UUAAUGA	-0.301
AAGUCUU	-0.681
AAUGGAG	3.43
CCAUGCG	-0.47
CAAGAAU	-0.269
UGAUUAC	-0.535
CGAAGAG	0.329
ACGAGAC	-0.171
AUGCUUA	-0.665
GGAACUA	0.368
UACGUAA	-0.269
GUUUCAC	-0.597
CUUCUUU	-0.886
AUACCGG	-0.376

Sequence	RNAcompete 7-mer binding Z-score
CAGGAAU	0.894
UGCGGUC	0.0105
GCGCAGA	0.54
AGAGGGA	2.09
GAAUGGU	3.01
CACUAUC	-0.649
CGAAUAG	0.056
CUUACCC	-0.792
UCUCCGU	-0.815
GAAAUAU	-0.0414
AUCCGGC	-0.636
AUGAAGC	0.0853
UAGAAUU	-0.262
CAGCGAA	-0.11
UCAGUCG	-0.353
GUCCUCC	-0.438
GUGGAGC	2.91
UACUAUC	-0.711
GUCAGUA	0.196
GUUGAUG	1.24
ACAUAGG	0.875
GCCAAAC	-0.548
CUGUUAC	-0.73

Sequence	RNAcompete 7-mer binding Z-score
CCAUGAC	-0.805
AGAUGUU	-0.0934
UGGAUCG	0.576
AGGCAUC	-0.269
GACACCC	-0.542
CUCCCUG	-0.311
CGGACGG	1.32
CAAUAGA	0.0463
GGACAAA	0.988
CGCCACC	-0.0967
GAAGGCA	1.7
UUGUUGG	0.81
GCGCGAG	0.413
UUCAGCA	-0.402
AUUCCCC	-0.555
GGUGUGU	1.7
UCCUUGG	-0.243
CCUGAAU	-0.707
AAGCUGC	-0.425
GCGGAGC	1.01
AGUGCUG	0.322
AAUGAUG	0.348
GCCAUAU	-0.594

Sequence	RNAcompete 7-mer binding Z-score
ACUGAAA	-0.402
AAAUUUC	-0.746
GCCUGCU	-0.724
UUAGCAC	-0.435
CAGACUG	-0.0999
GAAGUCA	-0.139
GUAUUUC	-0.756
CAGCACG	-0.0739
CAAACGU	-0.438
AUCUAAU	-0.659
UGGAGGU	2.84
GUGGUUA	2.45
GGCAUCC	-0.162
UACGACG	-0.272
GCCGACG	-0.035
AGGACGG	2.1
UCGAUGG	0.923
ACAAACC	-0.746
GCCACAA	-0.542
UACUUAU	-0.694
AGGCCUA	-0.607
CAAAAUA	-0.565
UGCCACU	-0.698

Sequence	RNAcompete 7-mer binding Z-score
GGCCUGC	-0.428
UUGACUC	-0.659
UGAAUUA	-0.155
GAGAAGA	1.22
ACUCCUA	-0.75
GCCCACC	-0.581
UUAUAGA	-0.324
GUAGAAA	1.03
ACGUUCC	-0.685
CAGUCGA	-0.269
CUUAUAG	-0.555
AAUCAAG	-0.0187
UACGUUC	-0.694
GGUUGUC	0.4
ACACGGU	0.417
CCGAGCU	-0.629
AUAGCAC	-0.301
AGGUCCC	-0.467
CUCAUCG	-0.636
UGGAGUG	3.08
GUUGGGA	3.15
AAUCGCG	-0.402
CUAAGGU	0.27

Sequence	RNAcompete 7-mer binding Z-score
UGAUCGG	0.849
CCGACGG	0.283
AGCAUCC	-0.548
GCUCAUA	-0.704
ACGAUUA	-0.366
CGCUUGG	-0.418
UCGUCAC	-0.34
GGUAUCG	0.868
ACCUACC	-0.685
AUUACUU	-0.704
AACUCUU	-0.932
CCGUAAA	-0.688
AGUAUGC	-0.0252
GGAGCCC	0.478
GUCAGCC	-0.448
AAACAGU	-0.337
AACCGCG	-0.353
GCACCUC	-0.409
GGAAGAU	1.87
GAGACGG	1.8
CUUGGGG	1.44
AUAGGAA	2.16
